{
  "source": "the supplement of paper PMC8728848",
  "assay_in_all_cases": "glycan array binding signal (z-score within array); higher = stronger binding",
  "conditions_in_all_cases": "glycan notation: IUPAC condensed, linker removed",
  "key": {"[1]": {"biological_target": "Gal(b1-4)GlcNAc(b1-3)Gal(b1-4)GlcNAc(b1-3)Gal(b1-4)GlcNAc(b1-3)Gal(b1-4)GlcNAc(b1-2)Man(a1-3)[Gal(b1-4)GlcNAc(b1-3)Gal(b1-4)GlcNAc(b1-3)Gal(b1-4)GlcNAc(b1-3)Gal(b1-4)GlcNAc(b1-2)Man(a1-6)]Man(b1-4)GlcNAc(b1-4)GlcNAc", "how_it_was_run": "(§1)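 Negative Z-scores can be read as non-binding. The Z-score is calculated within each array and then averaged across arrays of one protein sequence at different concentrations or buffers and across linkers. Arrays, 3228 in all, were curated from the Consortium for Functional Glycomics database and kept only where the protein sequence was available.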"}, "[2]": {"biological_target": "Gal(b1-4)GlcNAc(b1-3)Gal(b1-4)GlcNAc(b1-3)Gal(b1-4)GlcNAc(b1-3)Gal(b1-4)GlcNAc(b1-2)Man(a1-3)[Gal(b1-4)GlcNAc(b1-3)Gal(b1-4)GlcNAc(b1-3)Gal(b1-4)GlcNAc(b1-3)Gal(b1-4)GlcNAc(b1-2)Man(a1-6)]Man(b1-4)GlcNAc(b1-4)[Fuc(a1-6)]GlcNAc", "how_it_was_run": "as §1"}, "[3]": {"biological_target": "Gal(b1-4)GlcNAc(b1-3)Gal(b1-4)GlcNAc(b1-3)Gal(b1-4)GlcNAc(b1-3)Gal(b1-4)GlcNAc(b1-2)[Gal(b1-4)GlcNAc(b1-3)Gal(b1-4)GlcNAc(b1-3)Gal(b1-4)GlcNAc(b1-3)Gal(b1-4)GlcNAc(b1-6)]Man(a1-6)[Gal(b1-4)GlcNAc(b1-3)Gal(b1-4)GlcNAc(b1-3)Gal(b1-4)GlcNAc(b1-3)Gal(b1-4)GlcNAc(b1-2)Man(a1-3)]Man(b1-4)GlcNAc(b1-4)[Fuc(a1-6)]GlcNAc", "how_it_was_run": "as §1"}, "[4]": {"biological_target": "Gal(b1-4)GlcNAc(b1-3)Gal(b1-4)GlcNAc(b1-3)Gal(b1-4)GlcNAc(b1-3)Gal(b1-4)GlcNAc(b1-3)Gal(b1-4)GlcNAc(b1-2)Man(a1-3)[Gal(b1-4)GlcNAc(b1-3)Gal(b1-4)GlcNAc(b1-3)Gal(b1-4)GlcNAc(b1-3)Gal(b1-4)GlcNAc(b1-3)Gal(b1-4)GlcNAc(b1-2)Man(a1-6)]Man(b1-4)GlcNAc(b1-4)GlcNAc", "how_it_was_run": "as §1"}, "[5]": {"biological_target": "Gal(b1-4)GlcNAc(b1-3)Gal(b1-4)GlcNAc(b1-3)Gal(b1-4)GlcNAc(b1-3)Gal(b1-4)GlcNAc(b1-3)Gal(b1-4)GlcNAc(b1-2)Man(a1-3)[Gal(b1-4)GlcNAc(b1-3)Gal(b1-4)GlcNAc(b1-3)Gal(b1-4)GlcNAc(b1-3)Gal(b1-4)GlcNAc(b1-3)Gal(b1-4)GlcNAc(b1-2)Man(a1-6)]Man(b1-4)GlcNAc(b1-4)[Fuc(a1-6)]GlcNAc", "how_it_was_run": "as §1"}, "[6]": {"biological_target": "Gal(b1-4)GlcNAc(b1-3)Gal(b1-4)GlcNAc(b1-3)Gal(b1-4)GlcNAc(b1-3)Gal(b1-4)GlcNAc(b1-3)Gal(b1-4)GlcNAc(b1-2)[Gal(b1-4)GlcNAc(b1-3)Gal(b1-4)GlcNAc(b1-3)Gal(b1-4)GlcNAc(b1-3)Gal(b1-4)GlcNAc(b1-3)Gal(b1-4)GlcNAc(b1-6)]Man(a1-6)[Gal(b1-4)GlcNAc(b1-3)Gal(b1-4)GlcNAc(b1-3)Gal(b1-4)GlcNAc(b1-3)Gal(b1-4)GlcNAc(b1-3)Gal(b1-4)GlcNAc(b1-2)Man(a1-3)]Man(b1-4)GlcNAc(b1-4)[Fuc(a1-6)]GlcNAc", "how_it_was_run": "as §1"}, "[7]": {"biological_target": "Gal(b1-4)GlcNAc(b1-3)Gal(b1-4)GlcNAc(b1-3)Gal(b1-4)GlcNAc(b1-3)Gal(b1-4)GlcNAc(b1-3)Gal(b1-4)GlcNAc(b1-3)Gal(b1-4)GlcNAc(b1-2)Man(a1-3)[Gal(b1-4)GlcNAc(b1-3)Gal(b1-4)GlcNAc(b1-3)Gal(b1-4)GlcNAc(b1-3)Gal(b1-4)GlcNAc(b1-3)Gal(b1-4)GlcNAc(b1-3)Gal(b1-4)GlcNAc(b1-2)Man(a1-6)]Man(b1-4)GlcNAc(b1-4)GlcNAc", "how_it_was_run": "as §1"}, "[8]": {"biological_target": "Gal(b1-4)GlcNAc(b1-3)Gal(b1-4)GlcNAc(b1-3)GalNAc", "how_it_was_run": "as §1"}, "[9]": {"biological_target": "Gal(b1-4)GlcNAc(b1-3)Gal(b1-4)GlcNAc(b1-3)[Gal(b1-4)GlcNAc(b1-3)Gal(b1-4)GlcNAc(b1-6)]GalNAc", "how_it_was_run": "as §1"}, "[10]": {"biological_target": "Gal(b1-4)GlcNAc(b1-3)Gal(b1-4)GlcNAc(b1-6)[Gal(b1-3)]GalNAc", "how_it_was_run": "as §1"}, "[11]": {"biological_target": "Gal(b1-4)GlcNAc(b1-3)Gal(b1-4)[Fuc(a1-3)]GlcNAc(b1-3)Gal(b1-4)[Fuc(a1-3)]GlcNAc", "how_it_was_run": "as §1"}, "[12]": {"biological_target": "Gal(b1-4)GlcNAc(b1-3)GalNAc", "how_it_was_run": "as §1"}, "[13]": {"biological_target": "Gal(b1-4)GlcNAc(b1-3)[Fuc(a1-3)GlcNAc(b1-6)]Gal(b1-4)Glc", "how_it_was_run": "as §1"}, "[14]": {"biological_target": "Gal(b1-4)GlcNAc(b1-3)[Gal(b1-4)GlcNAc(b1-6)]Gal(b1-4)GlcNAc", "how_it_was_run": "as §1"}, "[15]": {"biological_target": "Gal(b1-4)GlcNAc(b1-3)[GlcNAc(b1-6)]Gal(b1-4)GlcNAc", "how_it_was_run": "as §1"}, "[16]": {"biological_target": "Gal(b1-4)GlcNAc(b1-6)Gal(b1-4)GlcNAc", "how_it_was_run": "as §1"}, "[17]": {"biological_target": "Gal(b1-4)GlcNAc(b1-6)GalNAc", "how_it_was_run": "as §1"}, "[18]": {"biological_target": "Gal(b1-4)GlcNAc(b1-6)[Gal(b1-3)]GalNAc", "how_it_was_run": "as §1"}, "[19]": {"biological_target": "Gal(b1-4)GlcNAc(b1-6)[Gal(b1-4)GlcNAc(b1-3)]GalNAc", "how_it_was_run": "as §1"}, "[20]": {"biological_target": "Gal(b1-4)GlcNAc6P", "how_it_was_run": "as §1"}, "[21]": {"biological_target": "Gal(b1-6)Gal", "how_it_was_run": "as §1"}, "[22]": {"biological_target": "Gal3S(b1-3)GalNAc", "how_it_was_run": "as §1"}, "[23]": {"biological_target": "Gal3S(b1-3)GlcNAc", "how_it_was_run": "as §1"}},
  "note": "The list shows a part of the results.",
  "data": [
    {"binder": "Clec2 (Mus musculus), Q9JL99 (protein) MQDEDGYITLNIKPRKQALSSAEPASSWWRVMALVLLISSMGLVVGLVALGIMSVTQQKYLLAEKENLSATLQQLAKKFCQELIRQSEIKTKSTFEHKCSPCATKWRYHGDSCYGFFRRNLTWEESKQYCTEQNATLVKTASQSTLDYIAERITSVRWIGLSRQNSKKDWMWEDSSVLRKNGINLSGNTEENMNCAYLHNGKIHPASCKERHYLICERNAGMTRVDQLL", "values": [
      {"measurement": "glycan array binding signal (z-score)", "setting": "[1]", "value": -0.166},
      {"measurement": "glycan array binding signal (z-score)", "setting": "[2]", "value": -0.457},
      {"measurement": "glycan array binding signal (z-score)", "setting": "[3]", "value": -0.401},
      {"measurement": "glycan array binding signal (z-score)", "setting": "[4]", "value": -0.216},
      {"measurement": "glycan array binding signal (z-score)", "setting": "[5]", "value": -0.583},
      {"measurement": "glycan array binding signal (z-score)", "setting": "[6]", "value": -0.575},
      {"measurement": "glycan array binding signal (z-score)", "setting": "[7]", "value": -0.516},
      {"measurement": "glycan array binding signal (z-score)", "setting": "[8]", "value": -0.51},
      {"measurement": "glycan array binding signal (z-score)", "setting": "[9]", "value": -0.118},
      {"measurement": "glycan array binding signal (z-score)", "setting": "[10]", "value": -0.123},
      {"measurement": "glycan array binding signal (z-score)", "setting": "[11]", "value": 0.099},
      {"measurement": "glycan array binding signal (z-score)", "setting": "[12]", "value": -0.487},
      {"measurement": "glycan array binding signal (z-score)", "setting": "[13]", "value": -0.171},
      {"measurement": "glycan array binding signal (z-score)", "setting": "[14]", "value": -0.65},
      {"measurement": "glycan array binding signal (z-score)", "setting": "[15]", "value": -0.566},
      {"measurement": "glycan array binding signal (z-score)", "setting": "[16]", "value": -0.465},
      {"measurement": "glycan array binding signal (z-score)", "setting": "[17]", "value": 0.915},
      {"measurement": "glycan array binding signal (z-score)", "setting": "[18]", "value": -0.432},
      {"measurement": "glycan array binding signal (z-score)", "setting": "[19]", "value": 0.236},
      {"measurement": "glycan array binding signal (z-score)", "setting": "[20]", "value": 1.94},
      {"measurement": "glycan array binding signal (z-score)", "setting": "[21]", "value": 0.006},
      {"measurement": "glycan array binding signal (z-score)", "setting": "[22]", "value": 1.3},
      {"measurement": "glycan array binding signal (z-score)", "setting": "[23]", "value": -0.246}
    ]}
  ]
}
